B1: Toll/interleukin-1 receptor domain-containing adapter protein (Homo sapiens), P58753 (parent)
chain: MASSTSLPAPGSRPKKPLGKMADWFRQTLLKKPKKRPNSPESTSSDASQPTSQDSPLPPSLSSVTSPSLPPTHASDSGSSRWSKDYDVCVCHSEEDLVAAQDLVSYLEGSTASLRCFLQLRDATPGGAIVSELCQALSSSHCRVLLITPGFLQDPWCKYQMLQALTEAPGAEGCTIPLLSGLSRAAYPPELRFMYYVDGRGPDGGFRQVKEAVMRYLQTLS

Variants of: B1
Details: with myd88_human MYD88, Q99836

Variant	effect of a mutation on the interaction
MASSTSLPAPGSRPKKPLGKMADWFRQTLLKKPKKRPNSPESTSSDASQPTSQDSPLPPSLSSVTSPSLPPTHASDSGSSRWSKDYDVCVCHSEEDLVAAQDLVSYLEGSTASLRCFLQLRDATPGGAIVSELCQALSSSHCRVLLITPGFLQDPWCKYQMLQAATEAPGAEGCTIPLLSGLSRAAYPPELRFMYYVDGRGPDGGFRQVKEAVMRYLQTLS [L165A]	disrupting interaction strength
MASSTSLPAPGSRPKKPLGKMADWFRQTLLKKPKKRPNSPESTSSDASQPTSQDSPLPPSLSSVTSPSLPPTHASDSGSSRWSKDYDVCVCHSEEDLVAAQDLVSYLEGSTASLRCFLQLRDATPGGAIVSELCQALSSSHCRVLLITPGFLQDPWCKYQMLQALTEAPGAEGCTIPLLSGLSRAAYPAELRFMYYVDGRGPDGGFRQVKEAVMRYLQTLS [P189A]	decreasing interaction strength
MASSTSLPAPGSRPKKPLGKMADWFRQTLLKKPKKRPNSPESTSSDASQPTSQDSPLPPSLSSVTSPSLPPTHASDSGSSRWSKDYDVCVCHSEEDLVAAQDLVSYLEGSTASLRCFLQLRDATPGGAIVSELCQALSSSHCRVLLITPGFLQDPWCKYQMAQALTEAPGAEGCTIPLLSGLSRAAYPPELRFMYYVDGRGPDGGFRQVKEAVMRYLQTLS [L162A]	disrupting interaction strength
MASSTSLPAPGSRPKKPLGKMADWFRQTLLKKPKKRPNSPESTSSDASQPTSQDSPLPPSLSSVTSPSLPPTHASDSGSSRWSKDYDVCVCHSEEDLVAAQDLVSYLEGSTASLRCFLQLRDATPGGAIVSELCQALSSSHCRVLLITPGFLQDAWCKYQMLQALTEAPGAEGCTIPLLSGLSRAAYPPELRFMYYVDGRGPDGGFRQVKEAVMRYLQTLS [P155A]	with no effect

Other lines, results leading:

effect of a mutation on the interaction	Variant
with no effect	MASSTSLPAPGSRPKKPLGKMADWFRQTLLKKPKKRPNSPESTSSDASQPTSQDSPLPPSLSSVTSPSLPPTHASDSGSSRWSKDYDVCVCHSEEDLVAAQDLVSYLEGSTASLRCFLQLRDATPGGAIVSELCQALSSSHCRVLLITPGFLQDPWCKYQMLQALTEAPGAEGCTIPLLSGLSRAAYPPELRFAYYVDGRGPDGGFRQVKEAVMRYLQTLS [M194A]
with no effect	MASSTSLPAPGSRPKKPLGKMADWFRQTLLKKPKKRPNSPESTSSDASQPTSQDSPLPPSLSSVTSPSLPPTHASDSGSSRWSKDYDVCVCHSEEDLVAAQDLVSYLEGSTASLRCFLQLRDATPGGAIVSELCQALSSSHCRVLLITPGFLQDPWCKAQMLQALTEAPGAEGCTIPLLSGLSRAAYPPELRFMYYVDGRGPDGGFRQVKEAVMRYLQTLS [Y159A]
with no effect	MASSTSLPAPGSRPKKPLGKMADWFRQTLLKKPKKRPNSPESTSSDASQPTSQDSPLPPSLSSVTSPSLPPTHASDSGSSRWSKDYDVCVCHSEEDLVAAQDLVSYLEGSTASLRCFLQLRDATPGGAIVSELCQALSSSHCRVLLITPGFLQDPWCKYQMLQALTEAPGAEGCTIPLLSGLSRAAYPPELRAMYYVDGRGPDGGFRQVKEAVMRYLQTLS [F193A]
with no effect	MASSTSLPAPGSRPKKPLGKMADWFRQTLLKKPKKRPNSPESTSSDASQPTSQDSPLPPSLSSVTSPSLPPTHASDSGSSRWSKDYDVCVCHSEEDLVAAQDLVSYLEGSTASLRCFLQLRDATPGGAIVSELCQALSSSHCRVLLITPGFLQDPACKYQMLQALTEAPGAEGCTIPLLSGLSRAAYPPELRFMYYVDGRGPDGGFRQVKEAVMRYLQTLS [W156A]

Variants of: B1
Details: with myd88_human MYD88, Q99836
Remark: another data set of the same source

effect of a mutation on the interaction	Variant
with no effect	MASSTSLPAPGSRPKKPLGKMADWFRQTLLKKPKKRPNSPESTSSDASQPTSQDSPLPPSLSSVTSPSLPPTHASDSGSSRWSKDYDVCVCHSEEDLVAAQDLVSYLEGSTASLRCFLQLRDATPGGAIVSELCQALSSSHCRVLLITPGFLQDPWCKYQMLQALTEAPGAEGCTIPLLLGLSRAAYPPELRFMYYVDGRGPDGGFRQVKEAVMRYLQTLS [S180L]
disrupting interaction strength	MASSTSLPAPGSRPKKPLGKMADWFRQTLLKKPKKRPNSPESTSSDASQPTSQDSPLPPSLSSVTSPSLPPTHASDSGSSRWSKDYDVCVCHSEENLVAAQDLVSYLEGSTASLRCFLQLRDATPGGAIVSELCQALSSSHCRVLLITPGFLQDPWCKYQMLQALTEAPGAEGCTIPLLSGLSRAAYPPELRFMYYVDGRGPDGGFRQVKEAVMRYLQTLS [D96N]

— IntAct's records for PubMed 21873236
